System: NCI-H322M
Details: Non-Small Cell Lung Cancer
Method: The human tumor cell lines of the cancer screening panel grown in RPMI 1640 medium containing 5% fetal bovine serum and 2 mM L-glutamine. For a typical screening experiment, cells are inoculated into 96 well microtiter plates in 100 μL at plating densities ranging from 5,000 to 40,000 cells/well depending on the doubling time of individual cell lines. After cell inoculation, the microtiter plates are incubated at 37° C., 5% CO2, 95% air and 100% relative humidity for 24 h prior to addition of experimental drugs.
After 24 hours, two plates of each cell line fixed in situ with TCA, to represent a measurement of the cell population for each cell line at the time of drug addition (Tz). Experimental drugs are solubilized in dimethyl sulfoxide at 400-fold the desired final maximum test concentration and stored frozen prior to use. At the time of drug addition, an aliquot of frozen concentrate is thawed and diluted to twice the desired final maximum test concentration with complete medium containing 50 μg/ml gentamicin. […]
Following drug addition, the plates are incubated for an additional 48 h at 37° C., 5% CO2, 95% air, and 100% relative humidity. […] Bound stain is subsequently solubilized with 10 mM trizma base, and the absorbance is read on an automated plate reader at a wavelength of 515 nm. […] Using the seven absorbance measurements [time zero, (Tz), control growth, (C), and test growth in the presence of drug at the five concentration levels (Ti)], the percentage growth is calculated at each of the drug concentrations levels. Percentage growth inhibition is calculated as:
Three dose response parameters are calculated for each experimental agent. […] The drug concentration resulting in total growth inhibition (TGI) is calculated from Ti=Tz. […] Values are calculated for each of these three parameters if the level of activity is reached; however, if the effect is not reached or is exceeded, the value for that parameter is expressed as greater or less than the maximum or minimum concentration tested.

Q: Which results are given for `NCC(=O)NS(=O)(=O)OC[C@H]1O[C@@H](n2cnc3c(N)ncnc32)[C@H](O)[C@@H]1O` [GlySA, glycylsulfamoyladenosine]?
A: GI50 (Homo sapiens): 1.51 µM; CC50 (Homo sapiens, read-out: LC50 (the source's name)): 22.9 µM; LC50/GI50: 15.1
